Out of some 360,000 compounds screened, about 16,000 (4.4%) were called active. The inconclusive results got no clear call from the source; some entries with a clear call stand among them for comparison. Calls follow the shape of the dose curve; as a rule, active = well fitted inhibition curve with a large enough effect; inconclusive = small, poorly fitted or top-dose-only effect; inactive = no such curve, though single readings can be large or run the other way. Where the call is inconclusive, the potency comes from a doubtful curve fit.
biological target: Bromodomain adjacent to zinc finger domain protein 2B (Homo sapiens) (UniProt Q9UIF8); assay: qHTS Assay for Inhibitors of BAZ2B; conditions: AlphaScreen BAZ2B-H3K14Ac peptide displacement; series mostly up to 114 µM; also: nearly all actives have a fitted effect of over 60% in size
How it was run: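 AlphaScreen luminescence quantifies BAZ2B engagement of H3K14Ac peptide; the protein and biotinylated peptide are both at 50 nM final, buffer PBS pH 7.4 with 0.01% Tween-20, all steps at room temperature.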
Potency is read from the fitted curve at half-maximal effect; tags tell the direction and shape of the fitted curve.

UniProt Q9UIF8, sequence (Q9UIF8 whole entry, looked up, the tested form may be a part): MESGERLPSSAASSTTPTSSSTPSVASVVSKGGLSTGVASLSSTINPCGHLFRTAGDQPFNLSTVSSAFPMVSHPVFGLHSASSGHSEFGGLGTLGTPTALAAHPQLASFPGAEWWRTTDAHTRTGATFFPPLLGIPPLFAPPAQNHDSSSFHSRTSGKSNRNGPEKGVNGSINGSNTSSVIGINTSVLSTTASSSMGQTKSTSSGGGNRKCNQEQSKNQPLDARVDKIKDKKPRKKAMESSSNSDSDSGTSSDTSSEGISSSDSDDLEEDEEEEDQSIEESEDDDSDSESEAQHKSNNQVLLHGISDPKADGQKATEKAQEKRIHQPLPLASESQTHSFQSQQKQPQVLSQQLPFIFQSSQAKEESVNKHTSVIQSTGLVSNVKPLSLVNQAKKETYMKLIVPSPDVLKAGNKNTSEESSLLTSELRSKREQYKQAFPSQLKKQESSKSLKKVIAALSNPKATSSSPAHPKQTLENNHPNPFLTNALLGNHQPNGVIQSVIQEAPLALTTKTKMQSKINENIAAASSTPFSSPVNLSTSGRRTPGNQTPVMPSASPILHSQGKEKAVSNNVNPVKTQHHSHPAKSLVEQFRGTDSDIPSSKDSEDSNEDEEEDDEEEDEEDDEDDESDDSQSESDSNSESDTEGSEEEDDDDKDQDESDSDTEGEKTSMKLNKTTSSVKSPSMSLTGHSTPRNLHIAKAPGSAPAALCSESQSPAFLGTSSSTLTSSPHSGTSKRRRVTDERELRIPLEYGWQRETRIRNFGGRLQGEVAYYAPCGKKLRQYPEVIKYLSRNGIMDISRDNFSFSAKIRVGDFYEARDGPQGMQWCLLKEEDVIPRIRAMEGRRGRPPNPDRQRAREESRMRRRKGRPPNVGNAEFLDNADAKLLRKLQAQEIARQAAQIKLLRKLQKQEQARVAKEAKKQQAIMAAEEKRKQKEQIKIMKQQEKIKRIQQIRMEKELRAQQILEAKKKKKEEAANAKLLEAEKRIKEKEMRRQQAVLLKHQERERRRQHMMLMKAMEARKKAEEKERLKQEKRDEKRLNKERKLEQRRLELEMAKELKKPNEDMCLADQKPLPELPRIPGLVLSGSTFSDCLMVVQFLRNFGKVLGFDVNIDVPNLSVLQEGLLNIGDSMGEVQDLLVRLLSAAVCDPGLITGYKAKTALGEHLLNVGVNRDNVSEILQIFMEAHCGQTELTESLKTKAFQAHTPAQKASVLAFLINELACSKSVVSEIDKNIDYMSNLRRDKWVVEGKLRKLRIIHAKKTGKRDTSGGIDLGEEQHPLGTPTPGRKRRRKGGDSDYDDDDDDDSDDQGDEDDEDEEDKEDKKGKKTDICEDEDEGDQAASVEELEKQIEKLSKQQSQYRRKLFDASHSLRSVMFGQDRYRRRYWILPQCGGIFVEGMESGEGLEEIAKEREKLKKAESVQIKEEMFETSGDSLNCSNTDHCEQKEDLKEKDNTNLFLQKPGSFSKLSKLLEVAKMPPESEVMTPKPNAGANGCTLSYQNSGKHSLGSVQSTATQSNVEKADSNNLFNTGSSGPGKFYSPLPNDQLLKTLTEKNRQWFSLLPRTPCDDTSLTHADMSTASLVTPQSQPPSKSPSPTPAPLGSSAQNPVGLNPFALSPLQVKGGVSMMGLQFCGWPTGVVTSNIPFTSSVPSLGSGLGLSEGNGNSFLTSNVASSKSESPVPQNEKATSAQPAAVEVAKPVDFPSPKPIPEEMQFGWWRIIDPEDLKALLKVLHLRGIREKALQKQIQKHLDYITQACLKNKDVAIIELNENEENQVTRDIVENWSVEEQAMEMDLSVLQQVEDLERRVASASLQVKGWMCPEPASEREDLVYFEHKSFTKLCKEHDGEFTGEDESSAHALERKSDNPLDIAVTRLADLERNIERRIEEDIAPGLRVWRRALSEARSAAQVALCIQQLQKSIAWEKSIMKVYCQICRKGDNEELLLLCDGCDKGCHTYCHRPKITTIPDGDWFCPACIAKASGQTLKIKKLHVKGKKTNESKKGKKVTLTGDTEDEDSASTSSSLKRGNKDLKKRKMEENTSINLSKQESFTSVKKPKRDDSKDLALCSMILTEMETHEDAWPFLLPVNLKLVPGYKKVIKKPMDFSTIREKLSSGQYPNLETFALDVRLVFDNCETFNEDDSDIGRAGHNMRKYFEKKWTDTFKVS

Structure (SMILES) | Potency
CCOc1ccc2nc(N(CCN(C)C)C(=O)c3ccc4c(c3)CCCC4)sc2c1 | inconclusive: 22.4 µM [inhibitor, partial curve]
Cc1cc([N+](=O)[O-])nn1CC(=O)Nc1cccc2nonc12 | inconclusive: 70.8 µM [inhibitor, partial curve]
CN1C(=O)C(=O)/C(=C(/O)c2ccc(Br)cc2)C1c1ccc(F)cc1 (stereo not drawn) | inactive
O=C(NCCc1nc2ccccc2n1Cc1ccc(Cl)cc1Cl)c1ccco1 | inconclusive: 79.4 µM [inhibitor, single point]
Cc1ccc(C)c(C(C)NC(=O)C2CCCC2)c1 (stereo not drawn) | inactive
Cc1ccc(Cn2c(CN3CCC(C(=O)NCCc4ccccc4)CC3)cc3ccccc32)cc1 | active: 17.8 µM
Cc1ccc(S(=O)(=O)CCC(=O)Nc2nnc(-c3ccco3)o2)cc1 | inconclusive: 89.1 µM [inhibitor, single point]
CC(C)Cc1cc(C(=O)NCc2ccco2)no1 | inconclusive: 89.1 µM [inhibitor, single point]
CC(C)Sc1ncc(Cl)c(C(=O)N(Cc2ccc(N(C)C)cc2)C2CCS(=O)(=O)C2)n1 (stereo not drawn) | active: 44.7 µM
CCN1CCN(c2oc(-c3ccccc3)nc2S(=O)(=O)c2ccc(C)cc2)CC1 | active: 50.1 µM
COc1cc(/C=C2/SC(=O)NC2=O)ccc1OCc1ccccc1 | inconclusive: 89.1 µM [inhibitor, single point]
CCN(CC)C(=O)c1sc2c(c1C)c(=O)n(-c1ccc(OC)cc1OC)c(=O)n2CC(=O)c1ccc(Cl)cc1 | inactive
Cc1csc(N2CCN(c3cc4c(cc3Cl)nc(-c3ccncc3)n4CCCN3CCCC3)CC2)n1 | inconclusive: 89.1 µM [inhibitor, single point]
COc1ccc2nc3cccc(OC)c3nc2c1 | inconclusive: 79.4 µM [inhibitor, partial curve]
O=C(C(=O)N1CCN(Cc2ccc3c(c2)OCO3)CC1)c1c[nH]c2ccccc12 | inconclusive: 79.4 µM [inhibitor, single point]
CN(C)c1ccc(/C=C(\C#N)c2nc(-c3ccc(Cl)c(Cl)c3)cs2)cc1 | inactive
S=C(NNC(=S)NC1CC2CCC1C2)NC1CC2C=CC1C2 (stereo not drawn) | inconclusive: 15.8 µM [inhibitor, full curve]
COC(=O)C/C(C)=N/Nc1ccc(S(=O)(=O)N2CCCC2)cc1[N+](=O)[O-] | inconclusive: 89.1 µM [inhibitor, single point]
CN1CCN(c2ccc(S(=O)(=O)N3CCCCC3)cc2NC(=O)COc2cccc(Cl)c2)CC1 | inconclusive: 89.1 µM [inhibitor, single point]
CC1CCN(c2nc(-c3ccco3)c3c(c2C#N)CC(C)(C)OC3)CC1 | inactive
CCCc1c(C(=O)NNc2cccc(Cl)c2)cnn1-c1ccccc1 | inactive
COc1ccc(N2C=C3C(=O)C(C)(OC(=O)CCc4ccccc4)C(=O)C=C3C=C2c2ccc(C#N)cc2)cc1 (stereo not drawn) | inconclusive: 44.7 µM [inhibitor, partial curve]
COc1ccc(S(=O)(=O)N(CC(=O)NCc2ccco2)c2ccccc2OC)cc1 | inconclusive: 56.2 µM [inhibitor, partial curve]
CC[C@@H](NS(=O)(=O)c1ccc(C)cc1)C(=O)Oc1ccc2c3c(c(=O)oc2c1)CCC3 | inactive
CCOc1ccc(-c2c(=O)n(OCc3ccccn3)c3ccccc3[n+]2[O-])cc1 | inactive

Structure (SMILES) | Potency
O=C1C=CC(=O)N1Cc1ccccc1 | inconclusive: 89.1 µM [inhibitor, single point]
CCc1ccc(S(=O)(=O)/N=C2\C=C(Nc3cccc(C(=O)O)c3)C(=O)c3ccccc32)cc1 | active: 10 µM
CCOC(=O)c1c(NC(=O)CSc2nnc(-c3cccnc3)o2)sc(C(C)=O)c1C | inconclusive: 89.1 µM [inhibitor, single point]
Cc1nn2c(NCCN(C)C)c3c(nc2c1-c1ccccc1)CCCC3 | inconclusive: 79.4 µM [inhibitor, single point]
COc1nc(-c2ccccc2)ccc1-c1noc(-c2ccco2)n1 | inactive
COc1ccc(/C=C2\SC(=S)N(CC(=O)N3CCN(C)CC3)C2=O)cc1 | inactive
CC(C)(C)c1ccc(-c2nc(SCC(=O)Nc3ccc(Cl)cc3)[nH]c(=O)c2C#N)cc1 | active: 79.4 µM
CCOC(=O)Cc1csc(NC(=O)NC2(C(F)(F)F)Oc3cc(Cl)c(Cl)cc3O2)n1 | inconclusive: 89.1 µM [inhibitor, single point]
CC1C/C(=C/c2cccn2C)C(=O)/C(=C/c2cccn2C)C1 (stereo not drawn) | active: 31.6 µM
CN(C)/C=C/C(=O)c1ccc(-c2ccc(Cl)cc2Cl)o1 | inconclusive: 50.1 µM [inhibitor, partial curve, poor fit]
O=C(NC1CCCCC1)NC1CCN(C(=S)NCc2ccco2)CC1 | inactive
CCCC(C)NC(=O)c1cc(C(=O)OC)cc([N+](=O)[O-])c1 (stereo not drawn) | inactive
O=C(CCN1C(=O)/C(=C\c2ccccc2Cl)SC1=S)Nc1cccnc1 | inconclusive: 7.08 µM [inhibitor, full curve]
CC(=O)N1N=C(c2ccco2)CC1c1ccc(Br)cc1 (stereo not drawn) | inactive
COc1ccc(C(=O)NCCS(=O)(=O)NCc2ccco2)cc1 | inactive
CCN(CCCNC(=O)c1cc2c(Cl)nc3ccccc3c2s1)Cc1ccccc1 | inconclusive: 44.7 µM [inhibitor, partial curve]
Cc1cc(C(=O)Nc2ccc(S(=O)(=O)Nc3nccs3)cc2)c(C)o1 | inconclusive: 79.4 µM [inhibitor, single point]
CCOc1ccc(CCNC(=O)/C=C/c2ccco2)cc1OCC | inconclusive: 50.1 µM [inhibitor, partial curve]
CCN1C(=O)/C(=C/C=C2\C=CN(CC)c3ccccc32)SC1=S | active: 2 µM
O=C(NCCC1CCCCN1S(=O)(=O)c1ccccc1)C(=O)NCc1ccco1 (stereo not drawn) | inconclusive: 100 µM [inhibitor, single point]
OCc1ncccc1O | inconclusive: 89.1 µM [inhibitor, single point]
COc1ccc(NC(=O)Cn2ncc3c2-c2ccccc2OC3)cc1Cl | inactive
O=C(CSc1nc2c([nH]c3ccccc32)c(=O)n1-c1ccccc1)Nc1ccc2c(c1)OCCO2 | inactive
COc1ccc(N2CCN(c3oc(-c4ccc(COc5cccc(C)c5)o4)nc3C#N)CC2)cc1 | inconclusive: 3.55 µM [inhibitor, full curve]
Cc1nn(C2CCCCC2)c(N)c1-c1ccccc1 | inconclusive: 89.1 µM [inhibitor, single point]

Structure (SMILES) | Potency
CCOc1ccc(CN2CCNC(=O)C2CC(=O)NCCC2=CCCCC2)cc1 (stereo not drawn) | inconclusive: 89.1 µM [inhibitor, single point]
COc1ccc(CN2CCN(Cc3ccccc3F)CC2)cc1OC | active: 35.5 µM
Cc1cc(C)c2nc(-c3cccnc3)cc(C(=O)Nc3ccc(S(=O)(=O)Nc4onc(C)c4C)cc3)c2c1 | inconclusive: 39.8 µM [inhibitor, partial curve]
CCCN(C(=O)CCc1nc(-c2ccc(OC)cc2)no1)c1ccccc1F | inactive
COc1ccc(OC)c(COC(=O)c2cc([N+](=O)[O-])ccc2N2CCOCC2)c1 | inconclusive: 35.5 µM [inhibitor, full curve, poor fit]
CC(C)NS(=O)(=O)c1ccc(OCC(=O)Nc2ccc3c(c2)OCO3)cc1 | inactive
CCOC(=O)C1(CCOc2ccccc2)CCN(Cc2nccn2CC)CC1 | inconclusive: 79.4 µM [inhibitor, single point]
N#CC1=C(N)OC2=C(C(=O)CC(c3ccco3)C2)C1c1ccc(OCc2c(F)cccc2Cl)cc1 (stereo not drawn) | active: 70.8 µM
CCOC(=O)C1CCN(Cc2ccccc2C(F)(F)F)CC1 | active: 79.4 µM
CC1(c2ccccc2)CC(C)(C)N2C(=O)/C(=C3\SC(=S)NC3=O)c3cccc1c32 (stereo not drawn) | inconclusive: 3.98 µM [inhibitor, full curve]
Oc1ccc(N=Nc2ccc3ccccc3c2)cc1 | active: 31.6 µM
CN(CCOc1ccccc1)CC(=O)Nc1cc([N+](=O)[O-])ccc1Cl | inconclusive: 70.8 µM [inhibitor, single point]
COCCN(CCOC)Cc1cc(=O)oc2cc3c(cc12)CCC3 | inactive
N#CC(C#N)=C1C=C2C=C(N3CCCCC3)CCC2CC1 (stereo not drawn) | active: 44.7 µM
Cc1cccc(Cc2c(C)nc3nc(SCC(=O)NCc4ccccc4)nn3c2C)c1 | inactive
COc1cccc(OCCCCN2CCCCC2)c1 | inconclusive: 89.1 µM [inhibitor, single point]
COc1ccc(CCNC(=O)Cn2ncc3c(=O)oc4ccccc4c32)c(OC)c1 | inconclusive: 89.1 µM [inhibitor, single point]
NC(=O)Nc1ccc2c(c1)OCCO2 | inactive
O=[N+]([O-])c1cccc(-c2ccc(SCc3cccnc3)nn2)c1 | inconclusive: 79.4 µM [inhibitor, single point]
CC(C)(C)NC(=O)C(c1ccncc1)N(Cc1ccc(F)cc1)C(=O)c1ccc(-c2ccccc2)[nH]1 (stereo not drawn) | inconclusive: 39.8 µM [inhibitor, partial curve]
Cc1ccc(NC(=S)NC(=O)c2ccc(F)cc2)cc1S(=O)(=O)Nc1ccccc1Cl | inactive
O=C(CSc1nc(=O)n2cc(Cl)ccc2n1)Nc1ccc2c(c1)OCO2 | inconclusive: 50.1 µM [inhibitor, partial curve]
COC(=O)c1ccc(C2Nc3ccccc3NC3=C2C(=O)CC(C)(C)C3)cc1 (stereo not drawn) | inconclusive: 89.1 µM [inhibitor, single point]
